# Source: publication PMC4336329 (PLoS ONE, 2015)
# The campaign covered roughly 310,000 compounds. About 14,000 (4.5%) showed an effect of 50% or more. The effect is printed as a negative number. Some of the results follow.
# Molecular target: human ether-à-go-go-related gene (hERG) potassium channel (human, UniProt Q12809)
# Experiment: primary screen, population patch clamp on CHO cells stably expressing hERG
# 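Further: peak tail current of the secondary pulse compared with the same well before compound.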
# Chain of human ether-à-go-go-related gene (hERG) potassium channel (Q12809 whole entry, looked up): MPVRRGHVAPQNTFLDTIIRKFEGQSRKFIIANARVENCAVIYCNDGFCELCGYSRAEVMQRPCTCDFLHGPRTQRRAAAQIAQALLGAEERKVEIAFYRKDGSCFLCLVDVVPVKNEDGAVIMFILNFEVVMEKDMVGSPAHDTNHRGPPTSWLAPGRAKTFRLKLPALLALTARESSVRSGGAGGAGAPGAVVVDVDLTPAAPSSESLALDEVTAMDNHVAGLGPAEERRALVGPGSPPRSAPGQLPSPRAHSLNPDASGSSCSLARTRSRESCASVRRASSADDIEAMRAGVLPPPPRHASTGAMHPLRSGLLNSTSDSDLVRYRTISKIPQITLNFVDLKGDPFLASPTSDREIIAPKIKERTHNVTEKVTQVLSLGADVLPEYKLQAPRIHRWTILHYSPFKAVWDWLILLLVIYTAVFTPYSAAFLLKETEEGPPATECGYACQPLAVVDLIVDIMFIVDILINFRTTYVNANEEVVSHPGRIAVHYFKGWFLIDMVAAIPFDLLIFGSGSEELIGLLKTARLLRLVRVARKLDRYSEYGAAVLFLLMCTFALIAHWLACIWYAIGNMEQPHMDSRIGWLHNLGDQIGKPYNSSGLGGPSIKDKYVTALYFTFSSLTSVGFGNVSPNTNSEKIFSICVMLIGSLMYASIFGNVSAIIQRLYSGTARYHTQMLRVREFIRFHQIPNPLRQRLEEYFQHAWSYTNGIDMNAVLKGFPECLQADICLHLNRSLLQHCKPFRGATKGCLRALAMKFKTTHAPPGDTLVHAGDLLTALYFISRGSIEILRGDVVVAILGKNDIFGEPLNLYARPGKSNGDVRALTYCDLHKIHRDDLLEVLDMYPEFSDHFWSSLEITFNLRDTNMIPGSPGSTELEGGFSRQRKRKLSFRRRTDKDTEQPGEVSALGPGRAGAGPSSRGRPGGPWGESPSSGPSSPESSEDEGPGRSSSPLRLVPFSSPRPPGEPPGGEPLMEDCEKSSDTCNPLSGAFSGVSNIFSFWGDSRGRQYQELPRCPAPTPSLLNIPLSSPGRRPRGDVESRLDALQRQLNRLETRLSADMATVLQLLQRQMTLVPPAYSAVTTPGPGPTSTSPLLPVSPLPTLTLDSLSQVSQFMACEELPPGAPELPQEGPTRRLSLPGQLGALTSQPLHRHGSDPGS
row,Structure (SMILES),"hERG current change (%, negative = inhibition) at 10uM [%]"
1,CC(C)O/C(=N\S(=O)(=O)c1ccc(Cl)cc1)c1ccccc1,-10.5
2,O=C(Nc1cc(F)ccc1F)N1CCN(c2ccnc3cc(Cl)ccc23)CC1,-66.4
3,Cc1ccc(NCc2nnc(SCC(=O)NCc3ccco3)n2CC2CCCO2)cc1Cl (stereo not shown),-7.7
4,c1ccc(CN(Cc2ccccc2)c2ncnc3c2nnn3Cc2ccccc2)cc1,7.63
5,COc1cccc(CN=C2Nc3ccccc3CS2)c1,4.23
6,N#Cc1ccc(OC(=O)c2cnccn2)cc1,8.78
7,CCN(C1CCS(=O)(=O)C1)S(=O)(=O)c1ccc2ccccc2c1 (stereo not shown),-10.5
8,CN1C(C(=O)NCc2ccco2)CC2Cn3c(nc4cc(Cl)c(Cl)cc43)C21 (stereo not shown),-43.2
9,CCN(CC)CCCCN1c2ccccc2Sc2ccccc21.Cl,-61.7
10,O=C(NCCc1ccc(Cl)cc1)C1CCC(=O)N1Cc1ccccc1Cl (stereo not shown),-9.45
11,O=C(O)c1ccc(-c2ccc(OS(=O)(=O)c3ccccc3F)cc2)cc1,9.84
12,CCN1C(=O)C(CC(=O)Nc2ccc(F)cc2)N(Cc2ccc3c(c2)OCO3)C1=S (stereo not shown),2.16
13,CCc1ccccc1NC(=S)NCc1ccc2c(c1)OCO2,-19.9
14,O=C(CCc1ccccc1)N1CCCC1,8.96
15,COc1ccccc1NC(=S)NC(=O)Cc1ccccc1,19.3
16,O=C(CCS(=O)(=O)c1cccs1)Nc1ccc(C(=O)NCc2cccs2)cc1,3.97
17,CC(=O)OCCN1C(=O)c2cccnc2C1=O,-5.21
18,Cc1ccccc1S(=O)(=O)Nc1nc2ccccc2nc1N1CCOCC1,7.22
19,N#CC1=C(N)SC(N)=C(C#N)C1c1cccc(O)c1,13.6
20,O=C(CN1CCOCC1)Nc1scc2c1c(=O)oc1ccccc12,16.1
21,C/C=C/C(=O)OCC(=O)Nc1ccc(SC(F)F)cc1,-22.2
22,COc1ccc(Cl)cc1NC(=O)CN1CCC(n2nnc3cc(C)ccc32)CC1,-24.2
23,O=C(Nc1ccc(Oc2cccnc2)cc1)C1CCN(Cc2ccc(F)cc2)CC1,-55.2

row,Structure (SMILES),"hERG current change (%, negative = inhibition) at 10uM [%]"
1,Cn1c(=O)c2c(nc(N3CCOCC3)n2CC(=O)C23CC4CC(CC(C4)C2)C3)n(C)c1=O,-24.3
2,CN(C)C(CNC(=O)C1CCCN(C(=O)c2ccc(Cl)cc2)C1)c1ccco1 (stereo not shown),5.06
3,Cn1c(=O)c2ncn(CC(=O)Nc3cc(C(F)(F)F)ccc3N3CCOCC3)c2n(C)c1=O,-49.2
4,CCN(CC)c1ccc(C(=O)c2ccccc2C(=O)O)c(O)c1,3.8
5,O=C(O)[C@@H]1CCCN1C(=O)c1ccccc1N1C(=O)[C@@H]2Cc3c([nH]c4ccccc34)C(c3cccc(Cl)c3)N2C1=O (stereo partly shown),3.44
6,COc1cc(NC(=O)c2cc(Br)cc(C)c2OC)ccc1NC(=O)C(C)C,6.34
7,CCCC(C)C(=O)Nc1ccc(S(N)(=O)=O)cc1 (stereo not shown),11
8,CC(=O)c1ccc(NC(=O)C2C3C=CC(O3)C2C(=O)O)cc1 (stereo not shown),10.9
9,CC(=O)Nc1ccc(N=Nc2ccc(O)cc2)cc1,29.2
10,O=c1cc(CO)occ1OCc1c(F)cccc1Cl,9.21
11,COCc1ccc(CN2CCc3c([nH]c4ccccc34)C2CC(C)C)o1 (stereo not shown),-58.7
12,O=C(c1cccs1)N1CCN(c2ccccc2)CC1,-0.00412
13,O=C(O)c1cc(-c2ccc(O)cc2)nc2ccccc12,21.5
14,COc1cc(C(=O)OCc2nc3ccsc3c(=O)[nH]2)c([N+](=O)[O-])cc1OC,-24.5
15,Cc1ccccc1Nc1nn2c(=O)c3ccccc3nc2s1,-7.82
16,Cc1ccc(C(=O)Nc2ccccc2Cl)cc1,13
17,O=C(CN1CCc2ccccc21)NC(=O)NCc1ccco1,-6.87
18,CCCCN1CCCCC1C(=O)Nc1c(C)cc(C)cc1C.Cl (stereo not shown),-36.6
19,COc1ccccc1-c1nn(-c2ccccc2)cc1C(=O)NC1CC1,-4.1
20,CCCCN(C(=O)c1cccc(S(=O)(=O)N2CCN(C)CC2)c1)c1c(N)n(CCCC)c(=O)[nH]c1=O,9.04
21,COc1ccc(CC(=O)N2C[C@H]3C[C@@H](C2)c2cccc(=O)n2C3)cc1,0.502
22,COc1ccc(NC(=O)Cn2nnc(C(=O)NCCc3ccccc3)c2N)cc1,24.6
23,Cc1cccc(NC(=S)N2CC3CC(C2)c2cccc(=O)n2C3)c1C (stereo not shown),24

row,Structure (SMILES),"hERG current change (%, negative = inhibition) at 10uM [%]"
1,Cc1ccc2nc3c(nc2c1C)C(O)=C3O,6.68
2,COc1ccc(NC(=O)COC(=O)C2CC3C=CC2C3)cc1 (stereo not shown),-0.182
3,COc1ccc(OCc2cc(C(=O)N3C[C@H]4CC[C@H]3C4)no2)c(Cl)c1,-3.96
4,COc1ccc(CC(=O)NNC(=S)NC(=O)c2cccnc2)cc1,7.36
5,c1ccc(C2C/C(=N\N3CCOCC3)c3ccccc3O2)cc1 (stereo not shown),5.14
6,CCOC(=O)Cn1c(=O)oc2cc(S(=O)(=O)N(C)c3ccc(OC)cc3)ccc21,-21.7
7,COc1cc(OC)cc(C(=O)Nc2ccccc2C(=O)NCc2cccnc2)c1,-6.78
8,CCOc1ccc(OCCCCN(C)C)cc1,3.69
9,CCOC(=O)Cn1cnc2c(nnn2-c2ccc(OC)cc2)c1=O,-1.5
10,CC1(C)N=C(c2ccccc2)C(=O)N1,-9.82
11,COc1ccc(OC)c(CN2CCN(c3ccccc3OC)CC2)c1,-32.7
12,c1ccc(-n2cc(CNCCc3cscn3)c(-c3ccc4c(c3)OCO4)n2)cc1,-65.4
13,COc1ccc(OC)c(NC(=S)NCC(c2cccnc2)N2CCOCC2)c1 (stereo not shown),4.6
14,O=C(CNC(=O)c1cccc(F)c1)N/N=C/C=C/c1ccccc1,-4.12
15,CN(C)c1cc(-c2cccc(C(F)(F)F)c2)oc(=O)c1Cl,9.42
16,Cc1cccc2sc(NC(=O)c3cccc(S(=O)(=O)N4CCc5ccccc54)c3)nc12,11.2
17,COc1ccc(NC(=S)NCCN2CCOCC2)c(OC)c1,-1.03
18,CCOC(=O)c1ccccc1NC(=S)N1CCC(C(N)=O)CC1,7.99
19,C/C(=N\NC(=S)NCc1ccccc1)c1ccc(C(C)(C)C)cc1,27.9
20,COc1ccc2c(Cl)c(C(=O)NN)sc2c1,7.88
21,COc1ccc(NC(=O)c2ccccc2)cc1,13.6
22,CCn1c(SC)nc2cc(S(=O)(=O)N3CCCCC3)ccc21,-21.5
23,COc1ccc(-c2noc(CCCC(=O)NC3CCCC3)n2)cc1OC,-2.97

row,Structure (SMILES),"hERG current change (%, negative = inhibition) at 10uM [%]"
1,Cc1ccccc1CNC(=O)c1ccccc1,7.43
2,CC(=O)N1CCCN(Cc2cn(-c3ccc(C)cc3)nc2-c2cccc(C)c2)CC1,-43
3,COc1ccc(N2CC(C(=O)Nc3cc(C)ccn3)CC2=O)cc1 (stereo not shown),-9.22
4,CCOC(=O)C1(Cc2cccc(Cl)c2)CCCN(C(=O)CCSC)C1 (stereo not shown),-7.38
5,CC(NC(=O)c1nn(C)c(=O)c2ccccc12)c1ccc(F)cc1 (stereo not shown),-3.84
6,O=C(c1ccccc1)C1CCN(C(=O)C2CCC(=O)N(Cc3ccccc3F)C2)CC1 (stereo not shown),3.08
7,O=C(CSc1ncnc2nc[nH]c12)NCCc1ccccc1,9.1
8,CCOC(=O)N1CCC(NS(=O)(=O)c2cc(Br)cnc2N)CC1,-4.52
9,COc1ccc(CNC(=O)[C@@H](C)NC(=O)[C@@H]2Cc3ccccc3CN2)cc1,-15.7
10,Cc1ccc(CNS(=O)(=O)N(C)C)cc1,21.5
11,CCC(=O)NC(Cc1ccccc1)c1nc2ccccc2[nH]1 (stereo not shown),7.19
12,CCc1ccc(CN2CCN(Cc3cc(Br)ccc3O)CC2)cc1,-1.81
13,Cc1cc(NC(=O)C2C3C(=O)N(CC4CCCO4)C(C(=O)NCc4ccccc4)C34C=CC2(C)O4)no1 (stereo not shown),16.8
14,Oc1cccc(CCC2CCCCN2Cc2cn[nH]c2-c2ccc3c(c2)OCO3)c1 (stereo not shown),-66.2
15,COc1ccc(OC)c(NC(=O)CC2SC(=NCc3ccccc3)NC2=O)c1 (stereo not shown),24.6
16,O=S1(=O)CC(O)C(N(CCO)C(=S)Nc2ccccc2)C1 (stereo not shown),13.5
17,C/C=C(\C)CN1CCN(c2cc(C)ccc2C)CC1,6.08
18,Cc1cc(C(=O)CN2C(=O)NC(C)(c3ccccc3)C2=O)c(C)n1CC1CCCO1 (stereo not shown),-27.8
19,CC(=O)Nc1ccc(C2NC(=O)CCC2[N+](=O)[O-])cc1 (stereo not shown),6.05
20,COc1ccccc1C(=O)NCCC(=O)Nc1ncccc1O,17
21,O=C(NC(=S)NC1CCS(=O)(=O)C1)c1ccccc1F (stereo not shown),20.8
22,Cc1cc(C)cc(NC(=O)Cc2ccc(-n3cccc3)cc2)c1,25.6
